# Screen size: about 310,000 compounds; about 14,000 (4.5%) showed an effect of 50% or more. The effect is printed as a negative number. The list shows a part of the results.
# Molecular target: human ether-à-go-go-related gene (hERG) potassium channel (human, UniProt Q12809)
# Test: primary screen, population patch clamp on CHO cells stably expressing hERG
# 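Also: peak tail current of the secondary pulse compared with the same well before compound.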
# human ether-à-go-go-related gene (hERG) potassium channel, sequence (Q12809 whole entry, looked up): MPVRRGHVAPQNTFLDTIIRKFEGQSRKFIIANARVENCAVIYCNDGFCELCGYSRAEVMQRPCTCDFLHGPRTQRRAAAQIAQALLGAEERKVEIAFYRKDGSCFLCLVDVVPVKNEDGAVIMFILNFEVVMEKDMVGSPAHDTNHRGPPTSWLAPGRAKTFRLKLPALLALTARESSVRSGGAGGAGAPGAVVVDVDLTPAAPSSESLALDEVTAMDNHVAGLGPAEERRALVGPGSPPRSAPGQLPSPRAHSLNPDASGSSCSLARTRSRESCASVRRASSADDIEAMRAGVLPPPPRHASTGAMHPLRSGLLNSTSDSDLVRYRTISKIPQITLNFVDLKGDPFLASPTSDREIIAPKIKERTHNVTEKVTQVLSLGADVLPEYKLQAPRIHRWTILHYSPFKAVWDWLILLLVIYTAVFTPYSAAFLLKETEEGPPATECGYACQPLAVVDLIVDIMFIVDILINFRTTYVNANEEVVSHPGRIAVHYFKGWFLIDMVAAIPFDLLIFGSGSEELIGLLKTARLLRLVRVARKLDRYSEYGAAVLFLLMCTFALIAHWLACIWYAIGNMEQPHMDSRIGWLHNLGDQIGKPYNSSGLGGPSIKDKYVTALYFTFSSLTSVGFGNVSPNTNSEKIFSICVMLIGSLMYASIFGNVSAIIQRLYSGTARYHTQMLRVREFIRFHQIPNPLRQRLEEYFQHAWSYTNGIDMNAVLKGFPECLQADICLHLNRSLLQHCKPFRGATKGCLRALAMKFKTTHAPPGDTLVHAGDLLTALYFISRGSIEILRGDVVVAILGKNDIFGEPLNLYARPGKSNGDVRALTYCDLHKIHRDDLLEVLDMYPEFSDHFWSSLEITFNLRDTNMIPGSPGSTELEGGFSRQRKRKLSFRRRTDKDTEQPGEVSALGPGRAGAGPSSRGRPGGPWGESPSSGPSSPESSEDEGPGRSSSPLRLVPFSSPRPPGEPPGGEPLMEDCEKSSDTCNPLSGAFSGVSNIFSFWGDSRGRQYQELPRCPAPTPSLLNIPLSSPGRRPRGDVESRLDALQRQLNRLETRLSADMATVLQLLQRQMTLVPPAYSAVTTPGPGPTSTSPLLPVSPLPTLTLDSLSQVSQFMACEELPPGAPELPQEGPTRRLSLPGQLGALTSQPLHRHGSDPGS
row,Structure (SMILES),"hERG current change (%, negative = inhibition) at 10uM"
1,COC(=O)c1cc[n+](CC(=O)c2ccccc2)cc1.[Br-],-3.18%
2,O=c1c2ccccc2n(Cc2ccc(Cl)cc2)c(=O)n1Cc1ccco1,4.77%
3,CN(CCO)CCC(=O)NC1(C)CS(=O)(=O)CC1S(=O)(=O)[O-].[Na+] (stereo not shown),-2.92%
4,CCCn1c(NCc2cccc(OC)c2OC)nc2ccccc21,-13.9%
5,CCOc1ccc(N2CC(C(=O)NCc3cccc(C)c3)CC2=O)cc1 (stereo not shown),-37.5%
6,CC(C)N(CC(=O)Nc1ccc(Cl)cc1C(F)(F)F)C(=O)CCl,6.07%
7,COc1ccccc1-c1nnc2sc(-c3cc4ccccc4o3)nn12,-5.14%
8,O=C1ON=C(c2ccccc2)/C1=C/c1ccco1,1.09%
9,Cc1nn2c(-c3ccc(F)cc3)ccnc2c1Cl,17%
10,Cc1nn(C)c(C(=O)N/N=C/c2ccc(Br)cc2)c1Cl,7.93%
11,C=C(C)Cn1c(SCC(=O)N/N=C/c2c(O)ccc3ccccc23)nc2ccccc2c1=O,12.9%
12,CCOC(=O)N1CCC(Nc2ncnc3c2cnn3-c2ccc(C)cc2C)CC1,-4.1%
13,CCCOc1ccc([N+](=O)[O-])c(N)c1,4.27%
14,COc1ccc(S(=O)(=O)N2CCOC23CCN(S(C)(=O)=O)CC3)cc1,4.71%
15,Cc1c(Cl)c([N+](=O)[O-])nn1CCCC(=O)Nc1sc2c(c1C(N)=O)CCC(C)C2 (stereo not shown),3.85%
16,Cc1c(N)cccc1-n1cccc1,16.2%
17,CCn1cnc2c1c(=O)n(CC(=O)NCC(F)(F)F)c(=O)n2Cc1ccccc1,26.6%
18,Cc1ccc(C)c(NC(=S)NC(C)C(c2ccccc2)N2CCN(C)CC2)c1 (stereo not shown),-48%
19,O=C(Cc1ccc(Cl)cc1Cl)Nc1ccncc1Cl,6.3%
20,O=C(Cn1cnc(S(=O)(=O)N2CCCC2)c1)Nc1ccc(OC(F)(F)F)cc1,22.5%
21,CC(Oc1ccc(Cl)cc1)C(=O)NNC(=S)NC(=O)c1ccco1 (stereo not shown),8.25%
22,O=C(Nc1ccccc1)c1cc(S(=O)(=O)N2CCSCC2)ccc1Cl,-13.5%

row,Structure (SMILES),"hERG current change (%, negative = inhibition) at 10uM"
1,CCN1C(=O)/C(=C\c2ccc(F)cc2)N=C1SCC(=O)NCc1ccco1,-13%
2,Cc1c(Cl)cccc1NC(=O)CCN1C(=O)C2CC=CCC2C1=O (stereo not shown),9.81%
3,Cc1ccc(C(=O)N2CCN(c3ccc([N+](=O)[O-])cc3)CC2)o1,-80.2%
4,O=C(NNC(=S)Nc1ccc(F)cc1)c1ccccc1OC(F)F,11.1%
5,Cc1ccc(C(=O)CSc2nc(-c3ccccc3)cc(=O)[nH]2)cc1,-26.1%
6,COc1ccc(-c2nc3ccccn3c2CN2CCN(c3ccccc3F)CC2)cc1,7.02%
7,COc1c(C)cccc1C(=O)Nc1ccc(N2CCN(C(=O)c3ccccc3C)CC2)cc1,-4.14%
8,COc1ccccc1C1N(c2ccc(F)cc2)C(=O)C2CCCN21 (stereo not shown),10%
9,COc1ccc(OC)c(NC=C2C(=O)OC3(CCCCC3)OC2=O)c1,-25.8%
10,CC1CN(C)CCC1OC(=O)c1ccccc1.Cl (stereo not shown),3.85%
11,O=c1[nH]c(/C(Cl)=C/c2cccc(F)c2)nc2cc(C(F)(F)F)ccc12,8.55%
12,Cc1cc(C)c(N(CC(=O)NC(C)(C)C)C(=O)CNC(=O)c2cccs2)c(C)c1,15.7%
13,O=c1c2cccc3c2c(nn1CN1CCOCC1)-c1ccccc1-3,-11.5%
14,Cl.O=[N+]([O-])c1ccc(COc2cccc(CNc3ccc(F)cc3)c2)cc1,-15.6%
15,CN(CC(=O)NCCc1ccc(S(N)(=O)=O)cc1)S(=O)(=O)/C=C/c1ccccc1,19.2%
16,COc1ccccc1NC(=O)Nn1cnnc1,10.8%
17,N#Cc1ccc(-c2cccnc2)nc1SCC(N)=O,-3.07%
18,O=C1C=C(c2ccc(-c3ccccc3)c(F)c2)C[C@@H](c2ccc(F)cc2)C1,9.36%
19,CCOC(=O)c1cc(C(=O)NN)c(=O)[nH]c1C,15.7%
20,O=C(O)c1cccnc1SC1CC(=O)N(Cc2ccccc2)C1=O (stereo not shown),-3.87%
21,Cc1ccc(NC(=S)N2CCN(c3ncccn3)CC2)c(C)c1,-3.74%
22,O=S(=O)(c1ccccc1)N1CCN(c2cccc(Cl)c2)CC1,8.67%

row,Structure (SMILES),"hERG current change (%, negative = inhibition) at 10uM"
1,Cc1oc2c(CN3CCOCC3)c(O)ccc2c(=O)c1-c1ccc(Cl)cc1,-19.1%
2,Cc1ccccc1C(=O)NCc1nnc(SCC(=O)N2c3ccccc3Sc3ccccc32)n1C,-4.41%
3,O=C(Nc1ccc(O)c2c(=O)cc(-c3cccc(Cl)c3)oc12)c1ccc(F)cc1,8.91%
4,CCOC(=O)c1c(N)sc2c1CCS(=O)(=O)C2,9.07%
5,CCC(OC(=O)C(CC(C)C)NC(=O)c1ccccc1)C(=O)Nc1nnc(C)s1 (stereo not shown),3.85%
6,N#CC1(c2ccc(NC(=O)c3ccccc3F)cc2)CCCC1,-7.6%
7,COc1ccc(NC(=O)c2ccc3c(=O)n(CC4CCCO4)c(=S)[nH]c3c2)c(OC)c1 (stereo not shown),6.84%
8,CC(C)Oc1ccc(C(=O)NC2CCN(Cc3ccccc3)CC2)cc1,-60.8%
9,Cc1cccc(NC(=O)c2cc(Cl)ccc2[N+](=O)[O-])c1,-24.9%
10,CC1CCc2c(sc(NC(=O)C(=O)NCc3ccco3)c2C#N)C1 (stereo not shown),-66.3%
11,c1ccc(CNc2nc(-c3ccccc3)nc3ccccc23)cc1,4.15%
12,O=C(CCN1C(=O)/C(=C\c2cccs2)SC1=S)Nc1ccc(C(=O)O)cc1,11.5%
13,CCOC(=O)Cc1csc(NC(=O)CSc2nc(=O)[nH]c3c2CCC3)n1,12.1%
14,Nc1nc(=S)c2ncn([C@@H]3O[C@H](CO)[C@@H](O)[C@H]3O)c2[nH]1,17.2%
15,CCC(CC)C(=O)NCCc1cc2cc(C)c(C)cc2[nH]c1=O,21.1%
16,Cc1ccc(N(C(=O)c2csnn2)C(C(=O)NC(C)(C)C)c2cccnc2)cc1C (stereo not shown),1.24%
17,Cc1ccc(C(=O)C(C)OC(=O)CN2C(=O)NC3(CCCC3)C2=O)cc1 (stereo not shown),8.95%
18,COCCn1c(NC(=S)NC(=O)C23CC4CC(CC(C4)C2)C3)cc(=O)[nH]c1=O,-8.59%
19,COc1ccc(CN2CCNC(=O)C2CC(=O)N(C)Cc2ccon2)cc1OC (stereo not shown),-0.926%
20,C=CCN(CC=C)C(=O)c1ccc2nc(Cc3ccc(OC)c(OC)c3)oc2c1,6.19%
21,COc1cc2c(cc1OC)CN(C(=O)c1cccc(S(=O)(=O)N(C)C)c1)CC2,6.05%
22,Cc1ccc(C)c(C(C)NC(=S)NC2CCCCC2)c1 (stereo not shown),0.228%

row,Structure (SMILES),"hERG current change (%, negative = inhibition) at 10uM"
1,COc1ccc(-c2c(C#Cc3ccsc3)c3cc(-c4ccc5[nH]ccc5c4)ccc3n2C)cc1,24.1%
2,Cc1ccc(NC(=O)CC2SC(=O)NC2=O)cc1 (stereo not shown),13.3%
3,CCCOc1ccc(-c2nn(-c3ccccc3)cc2/C=C2\SC(N)=NC2=O)cc1C,3.82%
4,Cc1ccnc(NC(=O)Nc2ccc3c(c2)OCO3)c1,17.2%
5,COc1ccc(NC(=O)CN(c2ccc([N+](=O)[O-])cc2)S(=O)(=O)c2ccccc2)cc1,-10.3%
6,COc1ccc(N2CCN(C(=O)COC(=O)CCS(=O)(=O)c3ccc(C)cc3)CC2)cc1,-12.2%
7,COC(=O)Cc1ccc(O)c(N)c1,9.82%
8,COc1cc(Br)cc(/C=N/c2ncn[nH]2)c1O,8.79%
9,Cc1cccc(OCC(=O)Nc2nnc(S(=O)(=O)N3CCCCC3)s2)c1,-8.5%
10,COc1cccc(CNc2ccccn2)c1O,14.9%
11,CCOc1ccc(NC(=O)c2ccc(S(=O)(=O)N3CCOCC3)cc2)cc1,10.1%
12,COc1cccc(-c2nc(CS(=O)(=O)CC(=O)NCC(C)c3ccccc3)c(C)o2)c1 (stereo not shown),-40.3%
13,COc1ccccc1C(=O)n1nc(-c2ccccc2)nc1N,0.335%
14,CCCCN1C(=O)C(O)(CC(=O)c2ccccc2OC)c2ccccc21 (stereo not shown),-0.832%
15,Cc1cc(NC2C3CC4CC(C3)CC2C4)n2nnnc2n1 (stereo not shown),5.05%
16,CS(=O)(=O)c1nc(S(=O)(=O)c2ccc(Cl)cc2)c(N2CCC3(CC2)OCCO3)s1,-59.3%
17,CCOc1ccc(CNC(=O)CCc2cn(Cc3ccccc3)c3ccccc23)cc1,-1.6%
18,CC1CCN(C(=O)c2cc(Cl)ccc2NC(=O)c2ccco2)CC1,12%
19,CC(C)CCNC(=O)C1CC(=O)N(C2CCCC2)C1 (stereo not shown),-8.78%
20,CSc1n[nH]c(=O)n1-c1cccc(Cl)c1,-0.0163%
21,NC(=O)CC(NC(=O)Cc1cccc2ccccc12)c1ccc(NCc2ccc(F)c(F)c2)c([N+](=O)[O-])c1 (stereo not shown),-1.33%
22,CCCCN(C)C1=Nc2cccc3cccc1c23,-72%

# — paper PMC4336329 (PLoS ONE, 2015)
